Here are results for 60 compounds from the supplement of paper PMC9446081.

Among all 39,000 compounds or so, about 220 (0.56%) showed activity. Some of the results follow.
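Further: static incubation at 37 °C against the wild-type strain, values averaged over two biological replicates.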

The test has as its system Escherichia coli K-12 BW25113. The test can be described thus: relative growth (OD600 normalised to plate interquartile mean) (fraction); higher = less growth inhibition, active = 0.2 or less. Conditions: 50 µM; LB; incubation time: overnight (16-24 h).
Regarding `C[C@@H]1CN([C@H](C)CO)C(=O)CCCn2cc(nn2)CO[C@H]1CN(C)S(=O)(=O)c1ccc(-c2ccccc2)cc1`, the relative growth is inactive: 0.924.
The value for `C[C@@H]1CCCCO[C@@H](CN(C)C(=O)Cc2ccccc2)[C@@H](C)CN([C@H](C)CO)C(=O)c2cc(NC(=O)Nc3ccc4c(c3)OCO4)ccc2O1` was inactive: 1.02; that for `C[C@H]1CN([C@@H](C)CO)C(=O)CCCn2nncc2CO[C@@H]1CN(C)S(=O)(=O)c1ccc(C#N)cc1` was inactive: 1.
On to `CC#CCCC(=O)O`, for which the relative growth is inactive: 1.01.
In the case of `C[C@@H]1CCCCO[C@H](CN(C)Cc2ccncc2)[C@H](C)CN([C@H](C)CO)C(=O)c2cc(NC(=O)CCC(F)(F)F)ccc2O1` it was inactive: 0.991; in that of `C[C@H]1CN([C@@H](C)CO)C(=O)Cc2cc(NC(=O)Cc3cn(C)c4ccccc34)ccc2O[C@@H]1CN(C)S(=O)(=O)c1cn(C)cn1`, inactive: 1.01.
On to `Cc1noc(C)c1NC(=O)N(C)C[C@@H]1Oc2ccc(NS(=O)(=O)c3ccccc3)cc2CC(=O)N([C@@H](C)CO)C[C@H]1C`, for which the relative growth is inactive: 1.
The value for `Cc1noc(C)c1S(=O)(=O)Nc1ccc2c(c1)C(=O)N([C@H](C)CO)C[C@@H](C)[C@@H](CN(C)Cc1ccccc1)OCCCC[C@H](C)O2` was inactive: 0.997; that for `CCCN(C)C[C@H]1OCCCC[C@@H](C)Oc2ccc(NC(=O)Cc3ccccc3)cc2C(=O)N([C@@H](C)CO)C[C@H]1C` was inactive: 0.939.
The value for `COc1ccc(Sc2ccc(N(C(=O)c3ccccc3Cl)C(=O)c3ccccc3Cl)cc2C#N)cc1` was inactive: 1.03.
The value for `NC(=O)c1cccnc1` was inactive: 1.1.
Consider `NCCC(=O)N[C@@H](Cc1cnc[nH]1)C(=O)O`, for which the relative growth was inactive: 1.
The value for `Cc1ccc(S[C@]2(C(=O)NCC(C)C)CC(=O)N(Cc3ccccc3Cl)[C@@H]2c2ccc(CO)cc2I)cc1` was inactive: 1.04.
In the case of `Nc1nccs1` it was inactive: 1.12; in that of `CC(C)CCCC(C)C1CCC2C3CC=C4CC(=O)CCC4(C)C3CCC12C` (stereo not given), inactive: 1.08.
Take `C[C@@H]1CCCCO[C@H](CN(C)CC2CCCCC2)[C@H](C)CN([C@@H](C)CO)C(=O)c2cc(NS(=O)(=O)c3ccc(F)cc3)ccc2O1`: the relative growth was inactive: 0.98.
In the case of `COCCOC(=O)N1C(=O)[C@@]2(c3ccccc31)[C@H](c1ccc(O)cc1)N1[C@H](c3ccccc3)[C@H](c3ccccc3)OC(=O)[C@H]1[C@@H]2C(=O)Nc1nc2ccccc2s1` it was inactive: 1.03; in that of `Cc1ccc(S(=O)(=O)Nc2ccc3c(c2)CC(=O)N([C@H](C)CO)C[C@@H](C)[C@H](CN(C)S(=O)(=O)c2cccs2)O3)cc1`, inactive: 0.994; in that of `COCC#Cc1cnc2c(c1)C(=O)N([C@H](C)CO)C[C@@H](C)[C@@H](CN(C)C(=O)CCN1CCCCC1)O2`, inactive: 1.02.
Turning to `C[C@H](CO)N1C[C@H](C)[C@H](CN(C)C(=O)Nc2cccc3ccccc23)Oc2ncc(-c3cc4ccccc4o3)cc2C1=O`, the relative growth is inactive: 1.04.
The value for `O=C(C[C@@H]1CC[C@H]2[C@@H](COC[C@H](O)CN2S(=O)(=O)c2ccccc2Cl)O1)NCc1ccccc1Cl` was inactive: 0.98; that for `Cc1ccc(S(=O)(=O)N(C)C[C@H]2Oc3cc(C#Cc4ccncc4)ccc3S(=O)(=O)N([C@@H](C)CO)C[C@H]2C)cc1` was inactive: 1.04; that for `C[C@@H]1CN([C@@H](C)CO)S(=O)(=O)c2ccc(-c3cccnc3)cc2O[C@@H]1CN(C)C(=O)NC1CCCC1` was inactive: 1.
The value for `CC(C)C[C@H](N)C(=O)O` was inactive: 1.02; that for `COc1ccc(NC(=O)N(C)C[C@H]2Oc3ccc(NC(=O)Nc4ccc(C(F)(F)F)cc4)cc3C(=O)N([C@@H](C)CO)C[C@H]2C)cc1` was inactive: 1.04.
Take `C[C@@H]1CN([C@H](C)CO)C(=O)c2c(c3ccccc3n2C)-c2ccccc2CO[C@@H]1CN(C)Cc1ccc2c(c1)OCCN2C`: the relative growth is inactive: 1.02.
For the compound `Cn1c(=O)c2c(ncn2CC(O)CO)n(C)c1=O` (stereo not given), the relative growth is inactive: 1.04.
The value for `C[C@H](CO)N1C[C@H](C)[C@H](CN(C)Cc2ccccc2)OCCCC[C@H](C)Oc2ccc(NC(=O)Nc3ccc(F)cc3)cc2C1=O` was inactive: 0.995.
The value for `CCOC(=O)c1c(CN2CCN(Cc3ccccc3)CC2)n(-c2ccccc2)c2cc(Br)c(OC)cc12` was inactive: 1.03; that for `NC[C@H]1O[C@H](O[C@H]2[C@H](O[C@@H]3O[C@H](CO)[C@@H](O)[C@H]3O)[C@@H](O)[C@H](N)C[C@@H]2N)[C@H](N)[C@@H](O)[C@@H]1O` was inactive: 0.515; that for `C[C@H]1CCCCO[C@H](CN(C)C(=O)c2ccccc2)[C@@H](C)CN([C@@H](C)CO)C(=O)c2cc(NS(=O)(=O)c3ccc(F)cc3)ccc2O1` was inactive: 1.02.
Take `C[C@@H]1CN([C@H](C)CO)C(=O)c2cc(NC(=O)Nc3ccccc3)ccc2O[C@@H]1CN(C)C(=O)Nc1ccc(C(F)(F)F)cc1`: the relative growth is inactive: 0.996.
The value for `COc1ccc(C#Cc2ccc3c(c2)[C@]2(C(=O)N3)[C@H](C(N)=O)[C@H]3C(=O)O[C@H](c4ccccc4)[C@H](c4ccccc4)N3[C@@H]2c2ccccc2OCCO)cc1` was inactive: 1.06.
`C=CCNC(=O)[C@@H]1[C@H]2C(=O)O[C@H](c3ccccc3)[C@H](c3ccccc3)N2[C@H](c2ccc(O)cc2)[C@@]12C(=O)Nc1ccc(C#CC3=CCCCC3)cc12`: the relative growth was inactive: 1.03.
The value for `C[C@@H]1CN([C@@H](C)CO)S(=O)(=O)c2ccc(C#Cc3ccncc3)cc2O[C@@H]1CN(C)S(=O)(=O)c1ccccc1` was inactive: 1.01.
The value for `COc1ccc(S(=O)(=O)Nc2ccc3c(c2)C(=O)N([C@H](C)CO)C[C@H](C)[C@@H](CN(C)Cc2ccc(Oc4ccccc4)cc2)O3)cc1` was inactive: 0.985; that for `C[C@H]1CCCCO[C@@H](CN(C)C(=O)Nc2ccc(C(F)(F)F)cc2)[C@@H](C)CN([C@@H](C)CO)C(=O)c2cc(NC(=O)Nc3ccccc3)ccc2O1` was inactive: 0.992.
In the case of `CCCOc1c(-c2ccc3ccccc3n2)cnc2ccccc12` it was inactive: 0.983; in that of `COc1ccc2c3c(n(c2c1)C)[C@H](CO)N(C[C@]13CN(C1)S(=O)(=O)C)C(=O)CN(C)C`, inactive: 0.985.
In the case of `COCC(=O)N1C[C@@H](C)[C@@H](OC)CN(C)C(=O)c2cc(NC(=O)c3ccc(F)cc3)ccc2OC[C@H]1C`, the relative growth was inactive: 0.995.
The value for `CC(=O)OCC(=O)C1(O)CCC2C3CCC4=CC(=O)CCC4(C)C3C(=O)CC21C` (stereo not given) was inactive: 1.07; that for `O=C(C[C@@H]1CC=CC[C@H](NC(=O)OCC2c3ccccc3-c3ccccc32)C(=O)OCCNC1=O)NCCO` was inactive: 1; that for `C[C@@H]1CN([C@@H](C)CO)C(=O)Cc2cc(NC(=O)Cc3cn(C)c4ccccc34)ccc2O[C@@H]1CN(C)Cc1ccc(C(=O)Nc2ccccc2N)cc1` was inactive: 0.892.
For `O=C(CCCCCNC(=O)OCc1ccc(CO[C@@H]2C[C@H](c3ccc(Br)cc3)C=C(C(=O)N3CCN(Cc4ccccc4)CC3)O2)cc1)NO`, the relative growth was inactive: 0.98.
The value for `C[C@@H]1CN([C@H](C)CO)C(=O)c2cc(NC(=O)Nc3ccccc3)ccc2O[C@H]1CN(C)Cc1ccc(Cl)c(Cl)c1` was inactive: 1.01; that for `Cc1cccn2c(=O)c(-c3nn[nH]n3)cnc12` was inactive: 1; that for `C[C@@H]1CN([C@@H](C)CO)S(=O)(=O)c2ccc(C#Cc3ccccc3)cc2O[C@@H]1CN(C)S(=O)(=O)c1cn(C)cn1` was inactive: 1.03.
In the case of `C[C@@H]1CCCCO[C@@H](CN(C)C(=O)CCC(F)(F)F)[C@H](C)CN([C@@H](C)CO)C(=O)c2cc(NC(=O)CCC(F)(F)F)ccc2O1` it was inactive: 0.933.
Regarding `C[C@@H]1CN([C@@H](C)CO)C(=O)c2cccc(NC(=O)c3ccc(-c4nccs4)cc3)c2O[C@H]1CN(C)S(C)(=O)=O`, the relative growth is inactive: 0.893.
The value for `C[C@H]1CN([C@@H](C)CO)C(=O)c2cc(C#CCN(C)C)cnc2O[C@H]1CN(C)C(=O)Nc1cccc(F)c1` was inactive: 0.994.
With `C[C@@H]1CN([C@@H](C)CO)C(=O)c2cc(NS(=O)(=O)c3ccc(F)cc3)ccc2O[C@H]1CN(C)S(=O)(=O)c1cccs1`, the relative growth is inactive: 0.981.
In the case of `Cc1noc(C)c1NC(=O)N(C)C[C@@H]1Oc2ccc(NS(=O)(=O)c3cccs3)cc2CC(=O)N([C@H](C)CO)C[C@@H]1C` it was inactive: 0.97; in that of `COc1ccc(S(=O)(=O)N(C)C[C@@H]2Oc3c(NS(C)(=O)=O)cccc3C(=O)N([C@H](C)CO)C[C@@H]2C)cc1`, inactive: 1.01.
In the case of `C[C@@H]1CCCCO[C@H](CN(C)S(=O)(=O)c2cn(C)cn2)[C@H](C)CN([C@H](C)CO)C(=O)c2cc(NS(=O)(=O)c3ccc(F)cc3)ccc2O1` it was inactive: 1.01; in that of `C[C@@H]1CCCCO[C@H](CN(C)C(=O)Cc2ccccc2)[C@@H](C)CN([C@H](C)CO)C(=O)c2cc(NC(=O)Nc3ccccc3)ccc2O1`, inactive: 1.02.
The value for `CC(C)NC(=O)N(C)C[C@H]1Oc2c(NC(=O)C3CCCCC3)cccc2C(=O)N([C@H](C)CO)C[C@@H]1C` was inactive: 0.994.
Take `C[C@@H]1CN([C@@H](C)CO)C(=O)c2cccc(NC(=O)C3CCCCC3)c2O[C@@H]1CN(C)Cc1ccc(C(=O)Nc2ccccc2N)cc1`: the relative growth was inactive: 0.99.
In the case of `O=C(C[C@H]1C[C@@H]2c3cc(NC(=O)Nc4ccc(C(F)(F)F)cc4)ccc3O[C@@H]2[C@H](CO)O1)NC1CCCCC1` it was inactive: 0.994.
The value for `COc1ccc(S(=O)(=O)N(C)C[C@@H]2Oc3c(NS(=O)(=O)c4ccccc4)cccc3C(=O)N([C@@H](C)CO)C[C@H]2C)cc1` was inactive: 1.01; that for `C[C@@H]1CN([C@@H](C)CO)C(=O)c2cc(NC(=O)Nc3cccc4ccccc34)ccc2O[C@@H]1CN(C)CC1CCCCC1` was inactive: 0.959.
